The whole screen tested about 310,000 compounds, of which about 14,000 (4.5%) showed an effect of 50% or more. Effects have a minus sign here. The list shows a part of the results.
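Also: peak tail current of the secondary pulse compared with the same well before compound.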

The target of the experiment is human ether-à-go-go-related gene (hERG) potassium channel (human, UniProt Q12809). Nature of the experiment: primary screen, population patch clamp on CHO cells stably expressing hERG.
Sequence of human ether-à-go-go-related gene (hERG) potassium channel (Q12809 whole entry, looked up): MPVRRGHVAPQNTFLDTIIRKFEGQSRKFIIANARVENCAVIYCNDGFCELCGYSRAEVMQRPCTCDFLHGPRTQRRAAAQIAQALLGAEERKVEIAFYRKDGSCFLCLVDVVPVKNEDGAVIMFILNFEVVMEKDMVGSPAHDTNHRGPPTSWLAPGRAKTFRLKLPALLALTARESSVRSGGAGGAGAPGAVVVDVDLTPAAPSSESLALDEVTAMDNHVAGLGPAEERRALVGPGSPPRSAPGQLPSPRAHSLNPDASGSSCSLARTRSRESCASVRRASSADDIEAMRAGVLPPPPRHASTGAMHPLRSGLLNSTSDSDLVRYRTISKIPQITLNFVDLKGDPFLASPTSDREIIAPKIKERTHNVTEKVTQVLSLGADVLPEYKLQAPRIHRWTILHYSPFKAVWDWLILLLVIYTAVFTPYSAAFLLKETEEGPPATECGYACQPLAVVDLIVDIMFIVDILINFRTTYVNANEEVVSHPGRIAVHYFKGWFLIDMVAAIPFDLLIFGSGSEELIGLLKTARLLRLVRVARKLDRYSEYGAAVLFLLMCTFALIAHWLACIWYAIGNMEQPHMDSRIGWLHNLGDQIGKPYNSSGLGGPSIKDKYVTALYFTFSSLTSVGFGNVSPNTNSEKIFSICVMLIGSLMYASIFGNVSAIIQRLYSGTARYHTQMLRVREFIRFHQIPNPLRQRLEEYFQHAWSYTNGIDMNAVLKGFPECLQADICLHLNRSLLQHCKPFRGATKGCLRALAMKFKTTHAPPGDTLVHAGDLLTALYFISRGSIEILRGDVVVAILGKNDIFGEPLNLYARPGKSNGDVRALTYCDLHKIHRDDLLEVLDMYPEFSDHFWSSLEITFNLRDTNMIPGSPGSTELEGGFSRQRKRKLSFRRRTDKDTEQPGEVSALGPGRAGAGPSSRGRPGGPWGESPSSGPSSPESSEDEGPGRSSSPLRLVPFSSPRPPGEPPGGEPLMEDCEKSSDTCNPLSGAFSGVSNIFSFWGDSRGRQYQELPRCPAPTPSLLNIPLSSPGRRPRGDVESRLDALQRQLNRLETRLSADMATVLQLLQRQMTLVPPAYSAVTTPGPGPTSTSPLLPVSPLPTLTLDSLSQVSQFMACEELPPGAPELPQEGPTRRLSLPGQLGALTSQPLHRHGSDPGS
In the case of `COc1ccc(C(=O)NC(CC(=O)O)c2cc([N+](=O)[O-])ccc2Cl)c(SC)c1` (stereo not drawn), the “hERG current change (%, negative = inhibition) at 10uM” value was determined as 21.7%. Consider `Cc1cc(OCc2cc(C(=O)N(C)Cc3nonc3C)no2)cc(C)c1Cl`, for which the “hERG current change (%, negative = inhibition) at 10uM” value worked out at 11.8%. Then `O=c1oc(-c2cccc(C(F)(F)F)c2)nn1-c1ccc(C(F)(F)F)cn1`, with -9.47%; and `COc1ccc(C2(C)NC(=O)N(CC(=O)N3CCc4ccccc43)C2=O)cc1OC` (stereo not drawn), with 4.39%; and `CCOC(=O)c1sc2nc3n(c(=O)c2c1C)CCCCC3`, with -17.2%. As to `C/C(=N\NC(=O)c1c(Br)c(C)nn1C)c1ccc(NC(=O)c2ccoc2C)cc1`, the “hERG current change (%, negative = inhibition) at 10uM” value stood at 12.5%.

Regarding `COc1ccc(CCNC(=O)C2CC(c3cc(C(F)(F)F)cc(C(F)(F)F)c3)=NO2)cc1` (stereo not drawn), the “hERG current change (%, negative = inhibition) at 10uM” value is on record as 0.762%. To `CCOC(=O)c1ccc(Nc2nnc(C)c3ccccc23)cc1` belongs -43.8%. Then `Nc1nnn(CC(=O)N/N=C/c2ccccc2)n1`, with 2.64%; and `Cc1ccc2nc(SC(C)C(=O)Nc3cccc([N+](=O)[O-])c3)[nH]c2c1` (stereo not drawn), with 2.89%; and `CCN(CC(=O)Nc1c(F)cccc1F)C(=O)Cc1ccsc1`, with -0.0163%. As to `CCOc1ccc(CCNC(=O)COC(=O)c2nc(Cl)ccc2Cl)cc1OCC`, the “hERG current change (%, negative = inhibition) at 10uM” value is given as -17.2%.

Turning to `CN(C)S(=O)(=O)c1cccc(NC(=O)CSc2nc3c(cc2C#N)C(=O)CC(C)(C)C3)c1`, the “hERG current change (%, negative = inhibition) at 10uM” value was -34.7%. Turning to `COc1ccc(CNC(=O)Cn2ncn3c(cc4ccccc43)c2=O)cc1`, the “hERG current change (%, negative = inhibition) at 10uM” value is recorded as -8.37%. To `O=C(Cn1cnc2cc([N+](=O)[O-])ccc2c1=O)NCCc1ccc(Cl)cc1` belongs -21.3%. Then `Cn1c(CC(=O)Nc2ccccc2F)nnc1SCC(=O)Nc1nccs1`, with 18.6%.

As for `CCn1c(O)c(N=NC(=S)NCC2CCCO2)c2ccccc21` (stereo not drawn), the “hERG current change (%, negative = inhibition) at 10uM” value is recorded as 18.5%. Then `COCCN(C(=O)c1cc(Cl)nc2ccccc12)c1c(N)n(Cc2ccccc2)c(=O)[nH]c1=O`, with 15.4%; and `CC(C)(C)c1ccc(C(=O)Nn2cnnc2)cc1`, with 19.4%; and `O=C(CSc1ccc(C(F)(F)F)cc1[N+](=O)[O-])N1CCOCC1`, with -6.11%. Then `CCN(CC(=O)Nc1c(F)cccc1F)C(=O)c1cccc(-n2cccc2)c1`, with -27.1%; and `O=C(c1ccco1)[C@@H]1[C@@H]2C(=O)N(c3ccccc3)C(=O)[C@@H]2C2c3ccccc3C=CN21` (stereo partly drawn), with 9.72%; and `CC(=O)NC(C(=O)N1CCC(c2nc3ccccc3s2)CC1)C(C)C` (stereo not drawn), with 9.84%. Then `COc1ccccc1NNC(=O)C(O)(c1ccccc1OC)c1ccccc1OC`, with 20.2%; and `CN=C1SC(CC(=O)Nc2ccc(F)cc2F)C(=O)N1/N=C(\C)c1cccc(OCC(=O)O)c1` (stereo not drawn), with -25.1%; and `CCn1ncc(CN2CCN(Cc3cccc(OC)c3)C(CCO)C2)c1C` (stereo not drawn), with 7.07%. Consider `CCCCNC(=S)Nc1ccc([N+](=O)[O-])cc1`, for which the “hERG current change (%, negative = inhibition) at 10uM” value was -10.2%.

On to `CCC1CCCCN1CCN1C(=O)C2C(C(=O)Nc3ccc(OC)cc3)C3C=CC2(O3)C1C(=O)NC1CCCCC1` (stereo not drawn), for which the “hERG current change (%, negative = inhibition) at 10uM” value worked out at 2.92%.

Consider `CC1CCC(NC(=O)C2c3ccccc3C(=O)N2Cc2cccs2)CC1` (stereo not drawn), for which the “hERG current change (%, negative = inhibition) at 10uM” value was -23.6%.

For `CN(CCOc1ccccc1)C(=O)c1ccc(F)c(S(=O)(=O)N2CCOCC2)c1`, the “hERG current change (%, negative = inhibition) at 10uM” value is given as -10.8%. In the case of `Cc1cc(C)nc(N/N=C/c2sccc2C)n1`, the “hERG current change (%, negative = inhibition) at 10uM” value is 7.56%.

In the case of `COc1ccc(/C=N/NC(=O)C[n+]2ccccc2)c(OC)c1.[Cl-]`, the “hERG current change (%, negative = inhibition) at 10uM” value is reported as 12%. As to `Cc1cccc2c1N(CC(=O)OC(C)C)C(=O)C2=O`, the “hERG current change (%, negative = inhibition) at 10uM” value is recorded as 13.2%. Turning to `O=S(=O)(c1ccccc1Cl)N1CCCC1c1nc(-c2cccc(Cl)c2)no1` (stereo not drawn), the “hERG current change (%, negative = inhibition) at 10uM” value was -9.49%. Then `O=C(O)c1ccccc1N(Cc1ccccc1)C(=O)CO/N=C/c1ccccc1`, with 2.87%. As to `O=[N+]([O-])c1ccc(-n2nnnc2-c2ccccc2)c([N+](=O)[O-])c1`, the “hERG current change (%, negative = inhibition) at 10uM” value is 6.9%.

`CCCCC(=O)Nc1cccc(-c2nn3c(C)nnc3s2)c1`: the “hERG current change (%, negative = inhibition) at 10uM” value is listed as -2.41%. In the case of `CN(C(=O)COC(=O)Cc1c(Cl)cccc1Cl)C1CCS(=O)(=O)C1` (stereo not drawn), the “hERG current change (%, negative = inhibition) at 10uM” value was -0.343%. To `CC1CN(C(=O)c2ccncc2)CC(C)O1` (stereo not drawn) belongs 12%. For `CC(=O)N1CCN(C(=O)CCc2nc3ccccc3c(=O)[nH]2)CC1`, the “hERG current change (%, negative = inhibition) at 10uM” value is 2.7%. Turning to `CCc1c(O)nc(SC2CC(=O)N(c3ccc(F)c(Cl)c3)C2=O)[nH]c1=O` (stereo not drawn), the “hERG current change (%, negative = inhibition) at 10uM” value is listed as 1.38%.

Turning to `CC1CCCCC1NC(=O)COC(=O)COc1ccc(Cl)cc1` (stereo not drawn), the “hERG current change (%, negative = inhibition) at 10uM” value was -9.17%. Consider `CCOc1cc(N2CCOCC2)c(OCC)cc1NC(=O)c1ccc(OCc2c(C)noc2C)c(OC)c1`, for which the “hERG current change (%, negative = inhibition) at 10uM” value was determined as 15.9%. Then `COc1ccc(CNC(=O)/C(C)=C\C(=O)O)cc1`, with 22.4%; and `Cc1cccc(OCC(=O)NCCNC(=O)c2ccccn2)c1`, with 16.8%. Consider `O=C(Nc1nc2c(Br)cc(Br)cc2c(=O)s1)C1CCC1`, for which the “hERG current change (%, negative = inhibition) at 10uM” value was 10.8%. Turning to `O=C(NCc1ccco1)c1ccc(COc2ccc(Cl)cc2)cc1`, the “hERG current change (%, negative = inhibition) at 10uM” value came out at 0.911%. On to `CN(C)S(=O)(=O)c1ccc(C(=O)Nc2ccccc2F)cc1`, for which the “hERG current change (%, negative = inhibition) at 10uM” value is listed as -12.3%.

As to `Cc1ccc(S(=O)(=O)NC(=O)N2CCCC(C)(C)C2)cc1`, the “hERG current change (%, negative = inhibition) at 10uM” value is listed as 8.82%. Then `O=C(CN1CC=C(c2ccccc2)CC1)NC(=O)NC1CCCCC1`, with -10.6%; and `Cc1ccc(NC(=O)c2nc[nH]c2C(=O)N[C@@H](CCCCNC(=O)OC(C)(C)C)C(=O)OC(C)(C)C)cc1`, with -2.43%. For the molecule `Cc1cc(/C=C2\SC(=O)N(C)C2=O)c(C)n1-c1ccc(S(N)(=O)=O)cc1`, the “hERG current change (%, negative = inhibition) at 10uM” value stood at 13.3%.

In the case of `CCOc1ccc(/C=N/Nc2nc(N3CCCC3)nc(N3CCCC3)n2)cc1OC`, the “hERG current change (%, negative = inhibition) at 10uM” value was -12%. `CCCCNC(=O)c1cc(-c2ccc(F)cc2)on1`: the “hERG current change (%, negative = inhibition) at 10uM” value is listed as -16.4%. Then `COc1ccc(NC(=O)CCN2CCN(C/C=C/c3ccccc3)CC2)cc1`, with -77.3%.

With `COc1ccc(/C=N/Nc2nc3ccccc3[nH]2)c(OC)c1OC`, the “hERG current change (%, negative = inhibition) at 10uM” value was 5.99%. To `Cc1ccc(C(=O)NCC(=O)Nc2ccccc2C(F)(F)F)cc1` belongs 13.1%. To `COc1ccc(NC(=O)N2CCCC2C(=O)NCc2ccccc2Cl)cc1` (stereo not drawn) belongs -4.77%. Regarding `O=C(CCSc1ccccn1)c1ccccc1`, the “hERG current change (%, negative = inhibition) at 10uM” value worked out at 8.82%. Then `COc1ccc(N(CC(=O)NCc2ccc(F)cc2)S(=O)(=O)c2c(C)n[nH]c2C)cc1`, with -26.5%; and `CCOc1ccc(NC(=O)CN2CCN(CC(=O)Nc3ccc(C(=O)OC)cc3)CC2)cc1`, with -66.2%. For the molecule `CCSc1nnc(NC(=O)c2ccc(C)cc2)s1`, the “hERG current change (%, negative = inhibition) at 10uM” value is given as -0.642%. In the case of `CC(C)NCCCCOc1ccc(Br)cc1Cl.O=C(O)C(=O)O`, the “hERG current change (%, negative = inhibition) at 10uM” value is recorded as -64.6%.

`CC1Cc2cc(S(=O)(=O)NCCC(=O)NCc3ccc(F)cc3)ccc2N1C(=O)C1CC1` (stereo not drawn): the “hERG current change (%, negative = inhibition) at 10uM” value was -4.19%. To `COCC1CCCCN1C(=O)C1CCN(c2nc(-c3ccccc3)nc3c2CCC3)CC1` (stereo not drawn) belongs -29.2%; to `COc1cc(O)c(C(CCN2CCCC2)c2ccc(N(C)C)cc2)c(OC)c1` (stereo not drawn), -10%; to `Cc1cccc(NC(=O)Nc2ccccc2[N+](=O)[O-])n1`, 16.7%. To `COc1cc(/C=N/NC(=O)C2=NNC(=O)C2C)ccc1O` (stereo not drawn) belongs 15.2%; to `CCOc1ccccc1N(CC(=O)NC1CCCC1)S(=O)(=O)c1ccc(C)cc1`, -22.5%. Then `CCNC(=S)N(CCN(C)C)Cc1cc2cc3c(cc2[nH]c1=O)OCO3`, with 6.97%; and `O/N=C/c1cc(Br)ccc1OCc1cccc(F)c1`, with -0.542%.

With `COc1ccc(N(CN2C(=O)c3ccccc3C2=O)C(=O)COc2ccc(Cl)cc2Cl)cc1`, the “hERG current change (%, negative = inhibition) at 10uM” value was found to be 18.3%. Take `CC(C)CN(C(=O)CCc1ccccc1Cl)c1c(N)n(Cc2ccccc2)c(=O)[nH]c1=O`: the “hERG current change (%, negative = inhibition) at 10uM” value was -16.4%. For the molecule `Cc1cc(C)c(S(=O)(=O)N2CCN(C(=O)c3cc(=O)[nH]c4ccccc34)CC2)c(C)c1`, the “hERG current change (%, negative = inhibition) at 10uM” value is reported as -32.5%.

Take `CC(=O)c1cccc(NC(=S)NC(=O)c2ccc(Br)cc2)c1`: the “hERG current change (%, negative = inhibition) at 10uM” value worked out at 2.1%. To `Cc1n[nH]c(=S)n1-c1ccc(Cl)cc1` belongs 17.5%; to `O=C(COc1coc(CN2CCN(c3ccc(F)cc3)CC2)cc1=O)Nc1ccccc1`, 11.1%. On to `CS(=O)(=O)N(CC(=O)N1CCCCCC1)Cc1ccc(Cl)cc1`, for which the “hERG current change (%, negative = inhibition) at 10uM” value is -7.82%.

As to `CCCCCP(=O)(O)c1ccccc1`, the “hERG current change (%, negative = inhibition) at 10uM” value amounted to 0.253%. Then `Cc1nn(C)c(C)c1C1Nc2ccccc2C(=O)N1O` (stereo not drawn), with 8.27%; and `O=C(CCN1CCCCC1)NNC(=S)NC(=O)c1ccc(Br)cc1`, with 10.3%. In the case of `O=C(CCCN1C(=O)/C(=C/c2cccs2)SC1=S)NNC(=O)c1cccnc1`, the “hERG current change (%, negative = inhibition) at 10uM” value amounted to 17.2%.

As for `CCCCOc1ccc(C(=O)NC(=S)Nc2ccc(CN3CCOCC3)cc2)cc1`, the “hERG current change (%, negative = inhibition) at 10uM” value turned out to be 4.51%. Then `Cc1cccc(-c2nnnn2-c2cccc(C)c2)c1`, with -2.26%; and `COc1ccc(NC(=O)CSc2nc3ccccc3c(=O)n2-c2ccc3c(c2)OCO3)c(OC)c1`, with -9.39%; and `O=C(NCCC1=CCCCC1)C1CCCN(S(=O)(=O)c2ccccc2)C1` (stereo not drawn), with 6.97%. With `Cc1nc(N)sc1C(=O)Nc1ccccc1.Cl`, the “hERG current change (%, negative = inhibition) at 10uM” value was determined as 11.1%.

For the origin of these results see article PMC4336329 (PLoS ONE, 2015).
